# According to the supplement of paper PMC11417369:
# This is one part of the list.
# System: PfSIP2 AP2 domain 1 (GST-tagged)
# Test: gcPBM binding intensity (ln(normalized median fluorescence intensity)); higher = stronger DNA binding
# Outline: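 The highest Masliner-normalised natural-log median intensity across replicate spots of either probe orientation is reported as binding intensity. GST-tagged P. falciparum DNA-binding domains expressed in E. coli were applied for 1 h to an Agilent 4 × 180k array of primer-extended double-stranded 36-bp intergenic genomic probes plus negative controls, and bound protein was detected with Alexa488 anti-GST antibody and scanned at 488 nm.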
row,Sequence,gcPBM binding intensity (ln)
1,ATTTTTTTTTTTTTTTTTTTTTTTTGGAGAAAGAGA [CACACA_negctrl_site1119],6.9
2,ATATATATATAATAAACACACACATATACATATATG [CACACA_site9145],8.68
3,AATATAAATAAAAACACACACACACCCATATATATA [CACACA_site2267],7.55
4,TTTATATACACACAGAAGAACAGAAATATTATATAT [TGCATGCA_negctrl_site483],7.2
5,AGGAAAAACTTGAATGCATGCGCACATTCTAGTTTG [TGCATGCA_site776],6.99
6,TATTATTACGTAATATGTACATATATTTATACCACT [XGTACX_site5918],7.19
7,AAAAATATATATAACACACACATAATATATATATAT [CACACA_site2537],8.82
8,TTATAACACATTACATGTACAAATATAAATATATTC [XGTACX_site6503],7
9,AAAAAAAAAAAAAAATGTACAAAAATTACTATAAAA [XGTACX_site7683],7.33
10,TTTTTTTTTGTTTACACACACAAAATATTATATGTA [CACACA_site2470],6.89
11,ATTAGCTACAAACAAAGGCTACCTATAGCAAGAGGG [GTGCAC_negctrl_site33],7
12,TATATATATACATACATACACACATATATATATATA [CACACA_site4109],9.25
13,ATAATTTCTTTTACATGTACAAAATTTGCTTATATG [XGTACX_site5388],7.1
14,ATATATATAATGTGAAGTACATTTTGTTTACATATT [XGTACX_site8405],7.33
15,TTTACACTTTCCAATAGTACATATTAGAATAATTCT [XGTACX_site7734],7.26
16,TTTATTAAATAATCTCTTTTTATTACATAATAATAA [XGTACX_negctrl_site382],6.67
17,GGATTATTTATAGGAGTGCATACATATATATATATA [GTGCAC_site9454],9.49
18,TAATTTATGGAATATGTGCACTTGCTGATCACTTTT [GTGCAC_site9843],9.87
19,AATATCTAAATAAAGTGTACTTACCTTATTAATTAT [XGTACX_site2276],6.95
20,CCAATACATAGAAACTGTACATTATGCATTATACAC [XGTACX_site3531],7.15
21,AATAAACATAAATACACACACAAAAAAAAAAACATA [CACACA_site4396],7.03
22,TTTTTTTTTTTTTGATGTACTAAAAAAAATGAGCCT [XGTACX_site8535],7.01
23,AAAAACAAAATATAATGTACACAATATATGTATATA [XGTACX_site2301],6.98

row,Sequence,gcPBM binding intensity (ln)
1,AAATATTACTACACTACATGCAGTTTTAGGTACACT [TGCATGCA_site42],6.95
2,TGTAGTCTGGAGAAGAGTACATAGTATCTGGTAACA [XGTACX_site4944],7.15
3,TATAGGTAAATGGACACACACATATTTATATTTATA [CACACA_site7683],7.02
4,TAATGTTTTTATATCACACACAAATATTAAATGATT [CACACA_site543],6.82
5,TTATTAGGTGTATAATGTACATATAATATATATATA [XGTACX_site3398],8.69
6,ATAGAAGCATCACACTGTACATGGATGAACAGAAAA [XGTACX_site7311],6.86
7,TATAATATAAGGATCACACACAAACAGACATATATA [CACACA_site557],7.02
8,GATATTAAAATATGTAGTACACATATTATATCATAT [XGTACX_site4167],6.95
9,TTAAAAATTATGGATACACACATATATATATATATT [CACACA_site2383],7.24
10,ATAGTTCCTTTTAATACACACAAAAAAAAAAACATG [CACACA_site3415],7.04
11,TTATTATCATCAAATCAAAAAATTCTTTTACCTGTT [CACACA_negctrl_site1348],6.76
12,TATATATATATATGTAGTACCTATAATATTAAATAC [XGTACX_site6118],9.16
13,AAGAAAAGAAACAAAAAAAAAAAGAAATAAAAGGAA [TGCATGCA_negctrl_site171],6.51
14,ATCAATAAATAAAATGTGCACATAATATATTAATAC,8.61
15,TATGAATGGTTAAGTACACACATATTAATATAGGTA [CACACA_site7606],7.02
16,AATTTTTTTTTTTTTTTTTTTTATATATGTGTGTGT [XGTACX_negctrl_site129],7.29
17,CTTATAAATAAAAGAAGTACATGTTAGTTCAAGTTA [XGTACX_site4183],7.24
18,TTGAAGAAAAAAAAATGTACATAAAAAATATATATG [XGTACX_site428],7.21
19,TTTCATCTCGTCATTTCTTATATAACTATTTTATAC [CACACA_negctrl_site813],7.27
20,ATTATTGTTTATTGATTTTTGTTAAAATAGGAAATT [GTGCAC_negctrl_site181],6.91
21,ATTATATTTATTAATATGTATATTTAATTATATTTA [XGTACX_negctrl_site376],6.68
22,TTCTTTATTATATGCACACGTACATAAAATATATAT [CACACA_site5157],7.74
